Laboratory results published in PMC6919601, “Identification of Plasmodium dipeptidyl aminopeptidase allosteric inhibitors by high throughput screening” (PLoS ONE, 2019).
Screen size: about 110,000 compounds; about 230 (0.21%) showed an effect of 50% or more. The list shows a part of the results.

Biological target: DPAP1 (Plasmodium falciparum, UniProt Q8IIJ9)
Experiment: primary screen, percent inhibition; read by cleavage of a fluorogenic dipeptide substrate; higher = more effect of the substance
Design: species or system P. falciparum D10 trophozoite lysates; single well
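Also: 30 min substrate incubation versus DMSO and 10 µM JCP410 controls.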

Chain of DPAP1 (Q8IIJ9 whole entry, looked up): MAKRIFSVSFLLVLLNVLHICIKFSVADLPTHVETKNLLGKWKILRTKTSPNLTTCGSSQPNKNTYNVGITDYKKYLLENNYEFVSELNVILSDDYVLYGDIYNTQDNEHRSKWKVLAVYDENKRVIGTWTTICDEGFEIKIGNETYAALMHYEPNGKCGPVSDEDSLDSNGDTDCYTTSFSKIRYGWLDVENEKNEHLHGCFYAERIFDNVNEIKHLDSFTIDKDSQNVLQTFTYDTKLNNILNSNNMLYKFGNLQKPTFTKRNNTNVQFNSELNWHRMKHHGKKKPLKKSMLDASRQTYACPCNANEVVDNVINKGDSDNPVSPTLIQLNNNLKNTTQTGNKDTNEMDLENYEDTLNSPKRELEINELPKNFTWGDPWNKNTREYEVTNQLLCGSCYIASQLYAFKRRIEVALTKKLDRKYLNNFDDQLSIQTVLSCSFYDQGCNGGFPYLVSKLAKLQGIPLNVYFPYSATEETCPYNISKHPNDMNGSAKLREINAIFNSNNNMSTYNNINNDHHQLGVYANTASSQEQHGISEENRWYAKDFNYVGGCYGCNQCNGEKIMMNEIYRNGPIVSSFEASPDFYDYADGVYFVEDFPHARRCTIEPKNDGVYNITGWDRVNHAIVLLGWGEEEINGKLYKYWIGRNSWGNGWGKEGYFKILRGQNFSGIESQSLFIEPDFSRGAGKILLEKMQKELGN

SMILES | % Inhibition @ 10 uM
CCOc1cc2c(cc1/C=C1/NC(=O)NC1=O)OCO2 | -2.17%
COc1ccc2ccc(OC)c(/C=C3\S/C(=N/c4ccc(C(=O)O)cc4)N(C)C3=O)c2c1 | -0.736%
CC(C)(C)C(=O)O/N=C(\N)c1ccccn1 | 4.06%
Cc1cc(OCC(=O)NCC2CCCO2)cc(C)c1Cl (stereo not shown) | -7%
CCc1ccc2c(Cl)c(C(=O)N3CCN(C(=O)c4ccco4)CC3)sc2c1 | -6.7%
COc1ccc(NS(=O)(=O)c2ccc(NC(=O)C3CC3)cc2)cc1 | -4.02%
CC(C)(Nc1ccccc1)c1nnnn1C(/C=C\c1ccc(Cl)cc1Cl)C(C)(C)C (stereo not shown) | -5.38%
C1=CC2(CCN(Cc3ccc4c(c3)OCO4)CC2)c2ccccc21 | 4.9%
Cc1cccc(NC(=O)c2cc3c(O)nc4ccccc4c3s2)n1 | 2.69%
N#CC1=C(N)OC2=C(C(=O)CC(c3ccco3)C2)C1c1cccc(F)c1 (stereo not shown) | -1.06%
N#CCNC(=O)[C@H](Cc1c(F)cccc1F)NC(=O)c1ccc(-c2ccc(C(=O)O)cc2Cl)cc1 | -3.14%
O=C(O)C1C2C=CC(C2)C1C(=O)N1CCN(c2cccc(Cl)c2)CC1 (stereo not shown) | -1.44%
COC(=O)C1=CN(CCOC23CC4CC(CC(C4)C2)C3)C=C(C(=O)OC)C1c1ccc(OC)cc1 | 5.38%
Cc1cccc(N2C(=O)c3ccc(C45CC6CC(CC(C6)C4)C5)cc3C2=O)n1 | -1.72%
Cc1noc(C)c1S(=O)(=O)N1CCC(C(=O)NCCc2ccc(Cl)cc2)CC1 | -8.81%
CN1C(=O)CC(C(=O)Nc2ccccc2F)S/C1=N/c1ccc2c(c1)OCO2 (stereo not shown) | -3.63%
CC(=O)N1c2ccccc2N=C2CC(c3ccc(F)cc3)CC(O)=C2C1c1cccnc1 (stereo not shown) | -1.06%
CCc1ccc(N2C(=O)CC(N3CCN(c4ccccc4F)CC3)C2=O)cc1 (stereo not shown) | 1.52%
COc1ccc(C2C(C#N)=C(N)N(c3cccnc3)C3=C2C(=O)CC(C)(C)C3)cc1OC (stereo not shown) | 4.28%
Cc1ccc(NC(=O)CSc2nc(O)cc(C(F)(F)F)n2)cc1C | 2.51%
COc1cccc(CN2CCN(Cc3ccccc3)CC2)c1 | -7.49%
CC(C)C(NC(=O)/C(=C/c1ccco1)NC(=O)c1ccc(Br)o1)C(=O)O (stereo not shown) | 3.96%
CC(C)SC1=NSC2=NC(=O)/C(=C\c3ccco3)C(=N)N21 | -1%
Cc1ccc(CN(CC(=O)Nc2cccc(F)c2)S(=O)(=O)c2ccccc2)cc1 | -3.76%
Cc1cccc(OCC(=O)N(Cc2nc(-c3ccccc3)no2)C(C)C)c1C | -5.58%

SMILES | % Inhibition @ 10 uM
O=C(NCc1ccco1)C1CCCCN1S(=O)(=O)c1ccc(F)cc1 (stereo not shown) | 1.23%
CCOc1cc(C2c3c(-c4ccccc4O)n[nH]c3C(=O)N2CCCO)ccc1O (stereo not shown) | 2.02%
Cc1ccc(C)c(NC(=O)C2CC(=O)N(c3ccc(F)cc3)C2)c1 (stereo not shown) | -1.28%
Cc1ccccc1Cn1c(=O)c(F)cn(C2CCCO2)c1=O (stereo not shown) | 0.385%
CCN(CCN(C)C)C1CCC(C(C)(C)C)CC1 (stereo not shown) | -6%
CN(C)CCCN(C(=O)Cc1ccccc1)c1nc2ccc(Cl)cc2s1 | 4.68%
CCC1CCCCN1C(=O)CSc1nc(O)c2c(n1)CCC2 (stereo not shown) | -10.4%
CCOC(=O)c1conc1-c1ccc(N(C)C)cc1 | -5.11%
Cc1noc2ncnc(N3CCC(C(N)=O)CC3)c12 | -6.33%
O=C(/C=C/c1ccc2c(c1)OCO2)Nc1ccc(Br)cc1 | 2.94%
Oc1ccccc1-c1cc(-c2ccccc2)[nH]n1 | -2.34%
COc1ccc(CNC(=O)C2=CC(c3cccs3)=NS(=O)(=O)N2C)cc1 | 2.32%
O=C1c2ccccc2C(=O)N1CN(CN1C(=O)c2ccccc2C1=O)C1CC1 | -0.522%
CCCCNCc1cccn1-c1sc2c(c1C#N)CCCC2 | -5.96%
COCCn1c(SCc2ccccc2Cl)nc2c1c(=O)[nH]c(=O)n2C | 0.673%
O=C(NCc1ccccc1Cl)c1cc2c(s1)-c1ccc(Cl)cc1S(=O)(=O)C2 | -2.67%
CCCCn1c(=O)c2oc3ccccc3c2n(CC(=O)NCc2ccc(C)cc2)c1=O | -0.326%
O=C1C(=C/C=C/c2ccccc2)C(=O)c2ccccc21 | -4.11%
O=S(=O)(Nc1ccc(NS(=O)(=O)c2ccc(F)cc2)cc1)c1ccc(F)cc1 | -1.42%
C=C(C)Cn1c(COc2ccc(OC)cc2)nc2ccccc21 | 3.12%
O=c1/c(=C/c2cccs2)sc2nc(-c3ccc(Br)cc3)nn12 | 1.91%
Cc1nc(N2C(=O)c3oc4ccccc4c(=O)c3C2c2cccc(Oc3ccccc3)c2)sc1C (stereo not shown) | 1.19%
O=C(COc1ccc2ccccc2c1)Nc1cccc(Cl)c1 | -2.8%
Cc1ccccc1NC(=O)c1cc(Cl)ccc1NC(=O)c1ccco1 | -7.14%
COc1ccc(-c2csc(/C(C#N)=C\Nc3ccc(Br)cc3)n2)cc1 | -3.19%

SMILES | % Inhibition @ 10 uM
Cc1[nH]c2ccccc2c1C(=O)CSc1nnnn1C | -5.53%
CCOc1ccc2[nH]c(SCc3ccc(C)cc3)nc2c1 | -3.14%
CN1C2C=C(N(C(=O)c3ccc(Cl)cc3)c3ccccc3)CC1CC2 (stereo not shown) | -4.21%
CC1(C)Oc2ccc3ccc(=O)oc3c2C(/C=N/C23CN4CN(CN(C4)C2)C3)=C1O | -3.13%
NC1=NC(c2ccc(OCc3ccccc3)cc2)n2c(nc3ccccc32)N1 (stereo not shown) | -1.11%
CN1CCN(c2nc3c(c(=O)[nH]c(=O)n3C)n2CCc2ccccc2)CC1 | 3.44%
Cc1nc([N+](=O)[O-])cn1-c1ccccc1N | -0.687%
O=C(Nc1cc(Cl)cc(Cl)c1)c1ccc(C(=O)Nc2cc(Cl)cc(Cl)c2)cc1 | -1.22%
CCOC(=O)N1CCC(NC(=O)CSCc2nc(-c3ccc(C)cc3)oc2C)CC1 | 2.37%
Clc1ccc(CCNc2nc3ccccc3c3nc(-c4cccnc4)nn23)cc1 | 2.6%
Nc1ccc(-c2nc3cc(N)ccc3s2)c(O)c1 | 3.83%
CCn1c2ccccc2c2cc(CN3CCN(c4ccc(F)cc4)CC3)ccc21 | -0.969%
COc1ccc(Cc2nnc(NC(=O)Cc3ccc(F)cc3)s2)cc1OC | 2.16%
CC1CC(C)CN(CC(O)COCCOc2ccc(Br)cc2)C1 (stereo not shown) | 0.907%
COc1ccc(-c2c(C(C)=O)c(C)nc3sc4c(=O)n(-c5ccccc5)cnc4c23)cc1 | -15.4%
CN(CC(O)c1ccccc1)C1CCC(C(C)(C)C)CC1 (stereo not shown) | -1.75%
Nc1cccc2c1nnn2C1OC(CO)C(O)C(O)C1O (stereo not shown) | -0.0267%
COc1ccc(-c2coc3c(C)c4oc(=O)c(CC(=O)O)c(C)c4cc23)cc1 | 6.85%
CC1=C(C(=O)Nc2ccc(F)cc2)C(c2ccccc2C)C2=C(O)CCCC2=N1 (stereo not shown) | 5.66%
CC(=O)NCCc1ccc(S(=O)(=O)N2CCOCC2)cc1 | -5%
OC(C#CC12CC3CC(CC(C3)C1)C2)c1ccccn1 (stereo not shown) | 1.02%
CCOCCCN1CNc2c(c(=O)n(C)c(=O)n2C)C1 | -6.67%
COC(F)(C(=O)Nc1sc(C(=O)N2CCCCC2)c(C)c1C#N)C(F)(F)F (stereo not shown) | -4.12%
COc1cc(C(=O)NCCC(=O)N2CCN(C)CC2)cc(OC)c1OC | -1.99%
O=S(=O)(NCCO)c1ccc2cc(O)ccc2c1 | -2.47%

SMILES | % Inhibition @ 10 uM
CN1CCN(c2nc3c(c(=O)n(C)c(=O)n3C)n2Cc2ccccc2)CC1 | 7.89%
O=C(CCc1nnc2n(Cc3ccccc3Cl)c(=O)c3ccccc3n12)NCCc1ccccc1 | -2.42%
O=C(Nc1sc2c(c1C(=O)NCc1cccnc1)CCCC2)c1ccc(Cl)cc1 | 2.01%
CN(C)/C=C1/C(=O)NC(=O)N(c2ccc(Cl)cc2)C1=O | -1.04%
COC(=O)c1nn2c(C(F)(F)F)cc(-c3ccc(C)cc3)nc2c1Cl | -0.142%
O=C(COc1ccc(Cl)cc1)NC1CCC(NC(=O)COc2ccc(Cl)cc2)CC1 (stereo not shown) | -5.27%
O=C(O)c1cccc(N2C(=O)C3C4CCC(C4)C3C2=O)c1 (stereo not shown) | -4.84%
CC1=CC(=C(C#N)C#N)CC(C)(C)C1 | -6.2%
CCN1CCN(C(=O)c2c(C)oc3c2C(=O)c2ccccc2C3=O)CC1 | -7.35%
COc1cccc(OCC(O)Cn2c(C)[n+](C)c3ccccc32)c1 (stereo not shown) | -1.6%
CCc1nn(CC(=O)NCCc2ccccc2)c(=O)c2cc3cc(F)ccc3n12 | -7.22%
CCOc1cc(C(=O)Nc2ccccc2)cc(OCC)c1OCC | -4.21%
COc1ccc(-c2noc(NCC3CCN(Cc4ccc(C)cc4)C3)n2)cc1OC (stereo not shown) | -2.21%
COc1ccc2nc(NC(=O)c3cn(CC(C)C)c(=O)c4c3c3ccccc3n4C)sc2c1 | 1.82%
CS(=O)(=O)N(Cc1ccccc1Cl)c1ccc(C(=O)Nc2ccc3c(c2)OCO3)cc1 | -0.48%
CCOC(=O)C1CCN(Cc2ccc(Cl)cc2)CC1 | -5.68%
C=C(C)CN1CCN(c2c3c(c(C#N)c4nc5ccccc5n24)CCC3)CC1 | -1.33%
CCOc1ccc(N2C(=O)CC(Nc3ccc(OC)cc3)C2=O)cc1 (stereo not shown) | 2.38%
Cc1nnc(N2C(=O)c3oc4ccccc4c(=O)c3C2c2cccc(OCc3ccccc3)c2)s1 (stereo not shown) | 1.19%
CC(=O)Nc1sc2c(c1C(c1ccccc1Cl)N1CCN(CCO)CC1)CCCC2 (stereo not shown) | -3.53%
CCN(CC)C(=O)Cn1cnc2sc(C(=O)NCCCOC)c(C)c2c1=O | -2.87%
COc1cccc(C(=O)NC(C)c2ccc3c(c2)OCCO3)c1 (stereo not shown) | 5.24%
